Like-named read-outs stand apart in the source and are kept apart here. Results are given in words; binding and its absence hold for the method and conditions named. Binding seen in cells or lysates may run through a third protein. Some binding calls cover weakened binding; strength is not graded here. Sequences can lack the tags named with a protein.
T1: NEP1R1-HA (NEP1R1 fused to an HA epitope tag) (UniProt Q8N9A8)
T1 sequence: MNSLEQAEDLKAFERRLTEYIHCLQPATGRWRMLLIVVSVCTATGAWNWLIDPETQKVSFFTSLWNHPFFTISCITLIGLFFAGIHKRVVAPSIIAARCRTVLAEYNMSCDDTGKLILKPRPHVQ

By UniProt entry, the sequences of proteins in these tests, tags left out.
UniProt Q13485: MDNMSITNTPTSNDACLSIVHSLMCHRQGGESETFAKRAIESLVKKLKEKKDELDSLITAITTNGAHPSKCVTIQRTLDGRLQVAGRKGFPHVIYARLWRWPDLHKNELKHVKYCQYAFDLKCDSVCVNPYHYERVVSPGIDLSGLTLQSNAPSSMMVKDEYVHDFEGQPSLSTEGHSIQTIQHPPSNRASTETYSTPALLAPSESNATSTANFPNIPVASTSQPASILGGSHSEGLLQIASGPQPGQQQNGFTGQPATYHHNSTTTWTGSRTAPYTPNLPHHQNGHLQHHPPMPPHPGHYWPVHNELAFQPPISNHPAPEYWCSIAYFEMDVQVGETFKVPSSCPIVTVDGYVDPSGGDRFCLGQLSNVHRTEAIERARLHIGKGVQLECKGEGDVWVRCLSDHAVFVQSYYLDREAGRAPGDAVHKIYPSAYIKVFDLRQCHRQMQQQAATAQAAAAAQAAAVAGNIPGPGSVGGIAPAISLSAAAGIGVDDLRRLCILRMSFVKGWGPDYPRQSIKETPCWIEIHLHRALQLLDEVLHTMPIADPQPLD

T2: CTDNEP1-FLAG (CTDNEP1 fused to a triple FLAG epitope tag) (UniProt O95476)
T2 sequence: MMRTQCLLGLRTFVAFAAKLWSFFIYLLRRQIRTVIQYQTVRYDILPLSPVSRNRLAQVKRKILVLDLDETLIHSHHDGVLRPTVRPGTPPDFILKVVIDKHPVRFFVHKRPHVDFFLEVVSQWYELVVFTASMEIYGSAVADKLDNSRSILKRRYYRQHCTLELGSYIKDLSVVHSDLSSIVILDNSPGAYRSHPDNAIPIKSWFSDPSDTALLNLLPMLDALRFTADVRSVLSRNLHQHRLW

T3: V5-tagged MAN1ΔC (UniProt Q9Y2U8)
T3 sequence: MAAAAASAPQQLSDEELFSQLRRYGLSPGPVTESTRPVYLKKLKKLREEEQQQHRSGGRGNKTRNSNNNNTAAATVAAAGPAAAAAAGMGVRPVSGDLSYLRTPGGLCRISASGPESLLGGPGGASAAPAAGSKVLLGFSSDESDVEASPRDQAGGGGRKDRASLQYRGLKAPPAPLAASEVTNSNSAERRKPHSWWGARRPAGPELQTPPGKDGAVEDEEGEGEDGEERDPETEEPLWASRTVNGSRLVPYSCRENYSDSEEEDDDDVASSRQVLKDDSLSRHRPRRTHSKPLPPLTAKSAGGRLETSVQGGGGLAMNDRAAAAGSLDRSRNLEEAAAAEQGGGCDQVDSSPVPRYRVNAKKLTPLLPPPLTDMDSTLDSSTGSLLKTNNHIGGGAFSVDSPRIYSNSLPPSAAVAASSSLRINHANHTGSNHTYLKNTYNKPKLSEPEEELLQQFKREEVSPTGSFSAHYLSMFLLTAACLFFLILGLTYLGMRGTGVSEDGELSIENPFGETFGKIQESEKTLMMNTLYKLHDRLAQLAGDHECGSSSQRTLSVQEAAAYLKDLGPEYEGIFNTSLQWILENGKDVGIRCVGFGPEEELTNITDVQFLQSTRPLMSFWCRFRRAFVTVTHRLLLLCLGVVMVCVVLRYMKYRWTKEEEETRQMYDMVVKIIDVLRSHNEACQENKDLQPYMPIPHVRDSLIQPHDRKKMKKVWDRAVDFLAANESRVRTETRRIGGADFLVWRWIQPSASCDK

T4: V5-MAN1 (V5-tagged MAN1) (UniProt Q9Y2U8)
T4 sequence: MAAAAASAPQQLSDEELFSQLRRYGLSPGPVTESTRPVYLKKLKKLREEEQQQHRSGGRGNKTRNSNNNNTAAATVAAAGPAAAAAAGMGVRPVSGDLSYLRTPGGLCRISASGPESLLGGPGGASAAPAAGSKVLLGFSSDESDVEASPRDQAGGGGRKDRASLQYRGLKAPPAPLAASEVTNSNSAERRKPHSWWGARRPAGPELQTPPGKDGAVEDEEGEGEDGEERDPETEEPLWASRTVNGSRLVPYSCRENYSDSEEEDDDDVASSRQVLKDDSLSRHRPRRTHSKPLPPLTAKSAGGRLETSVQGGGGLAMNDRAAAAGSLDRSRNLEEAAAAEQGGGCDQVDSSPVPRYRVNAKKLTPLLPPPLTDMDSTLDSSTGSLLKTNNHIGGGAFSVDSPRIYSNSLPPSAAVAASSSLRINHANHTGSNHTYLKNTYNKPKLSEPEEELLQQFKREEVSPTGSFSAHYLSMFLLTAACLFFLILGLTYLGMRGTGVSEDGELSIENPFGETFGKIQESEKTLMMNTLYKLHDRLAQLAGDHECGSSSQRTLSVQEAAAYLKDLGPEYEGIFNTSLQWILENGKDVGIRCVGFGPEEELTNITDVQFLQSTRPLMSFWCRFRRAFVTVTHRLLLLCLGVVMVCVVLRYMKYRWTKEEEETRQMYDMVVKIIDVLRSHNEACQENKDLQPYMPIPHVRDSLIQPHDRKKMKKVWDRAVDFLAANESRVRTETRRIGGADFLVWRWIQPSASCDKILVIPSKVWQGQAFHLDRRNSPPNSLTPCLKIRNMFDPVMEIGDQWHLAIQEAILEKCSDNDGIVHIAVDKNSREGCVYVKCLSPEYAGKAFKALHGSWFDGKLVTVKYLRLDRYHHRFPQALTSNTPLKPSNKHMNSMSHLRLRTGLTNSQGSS


Tests used:
Test in all cases: co-IP; HeLa lysates in 1% DMNG, 50 mM Tris-HCl pH 7.5, 150 mM NaCl, 4 °C; anti-HA, anti-FLAG or anti-V5 magnetic beads 2 h; washes in 0.1% DMNG; immunoblot; parental cells, CTDNEP1 KO cells, or MAN1 KO cells expressing V5-MAN1 derivatives; without or with 1 h TGF-β3 (20 ng/ml) or BMP
[1] = biological target: T1, NEP1R1-HA (NEP1R1 fused to an HA epitope tag)
[2] = biological target: T2, CTDNEP1-FLAG (CTDNEP1 fused to a triple FLAG epitope tag)
[3] = biological target: T3, V5-tagged MAN1ΔC
[4] = biological target: T4, V5-MAN1 (V5-tagged MAN1)
[5] = biological target: T1, NEP1R1-HA (NEP1R1 fused to an HA epitope tag); remark: listed apart in the source

| Molecule | binding [5] | other results |
| --- | --- | --- |
| SMAD4 (from UniProt Q13485 1-552) |  | binding [1]: no binding; binding [2]: no binding |
| NEP1R1-HA (NEP1R1 fused to an HA epitope tag) (protein, UniProt Q8N9A8 1-125) MNSLEQAEDLKAFERRLTEYIHCLQPATGRWRMLLIVVSVCTATGAWNWLIDPETQKVSFFTSLWNHPFFTISCITLIGLFFAGIHKRVVAPSIIAARCRTVLAEYNMSCDDTGKLILKPRPHVQ |  | binding [3]: binds; binding [4]: binds |
| V5-MAN1 (V5-tagged MAN1) (protein, UniProt Q9Y2U8 1-911) MAAAAASAPQQLSDEELFSQLRRYGLSPGPVTESTRPVYLKKLKKLREEEQQQHRSGGRGNKTRNSNNNNTAAATVAAAGPAAAAAAGMGVRPVSGDLSYLRTPGGLCRISASGPESLLGGPGGASAAPAAGSKVLLGFSSDESDVEASPRDQAGGGGRKDRASLQYRGLKAPPAPLAASEVTNSNSAERRKPHSWWGARRPAGPELQTPPGKDGAVEDEEGEGEDGEERDPETEEPLWASRTVNGSRLVPYSCRENYSDSEEEDDDDVASSRQVLKDDSLSRHRPRRTHSKPLPPLTAKSAGGRLETSVQGGGGLAMNDRAAAAGSLDRSRNLEEAAAAEQGGGCDQVDSSPVPRYRVNAKKLTPLLPPPLTDMDSTLDSSTGSLLKTNNHIGGGAFSVDSPRIYSNSLPPSAAVAASSSLRINHANHTGSNHTYLKNTYNKPKLSEPEEELLQQFKREEVSPTGSFSAHYLSMFLLTAACLFFLILGLTYLGMRGTGVSEDGELSIENPFGETFGKIQESEKTLMMNTLYKLHDRLAQLAGDHECGSSSQRTLSVQEAAAYLKDLGPEYEGIFNTSLQWILENGKDVGIRCVGFGPEEELTNITDVQFLQSTRPLMSFWCRFRRAFVTVTHRLLLLCLGVVMVCVVLRYMKYRWTKEEEETRQMYDMVVKIIDVLRSHNEACQENKDLQPYMPIPHVRDSLIQPHDRKKMKKVWDRAVDFLAANESRVRTETRRIGGADFLVWRWIQPSASCDKILVIPSKVWQGQAFHLDRRNSPPNSLTPCLKIRNMFDPVMEIGDQWHLAIQEAILEKCSDNDGIVHIAVDKNSREGCVYVKCLSPEYAGKAFKALHGSWFDGKLVTVKYLRLDRYHHRFPQALTSNTPLKPSNKHMNSMSHLRLRTGLTNSQGSS | binds |  |
| V5-tagged MAN1ΔC (domain or fragment, UniProt Q9Y2U8 1-756) MAAAAASAPQQLSDEELFSQLRRYGLSPGPVTESTRPVYLKKLKKLREEEQQQHRSGGRGNKTRNSNNNNTAAATVAAAGPAAAAAAGMGVRPVSGDLSYLRTPGGLCRISASGPESLLGGPGGASAAPAAGSKVLLGFSSDESDVEASPRDQAGGGGRKDRASLQYRGLKAPPAPLAASEVTNSNSAERRKPHSWWGARRPAGPELQTPPGKDGAVEDEEGEGEDGEERDPETEEPLWASRTVNGSRLVPYSCRENYSDSEEEDDDDVASSRQVLKDDSLSRHRPRRTHSKPLPPLTAKSAGGRLETSVQGGGGLAMNDRAAAAGSLDRSRNLEEAAAAEQGGGCDQVDSSPVPRYRVNAKKLTPLLPPPLTDMDSTLDSSTGSLLKTNNHIGGGAFSVDSPRIYSNSLPPSAAVAASSSLRINHANHTGSNHTYLKNTYNKPKLSEPEEELLQQFKREEVSPTGSFSAHYLSMFLLTAACLFFLILGLTYLGMRGTGVSEDGELSIENPFGETFGKIQESEKTLMMNTLYKLHDRLAQLAGDHECGSSSQRTLSVQEAAAYLKDLGPEYEGIFNTSLQWILENGKDVGIRCVGFGPEEELTNITDVQFLQSTRPLMSFWCRFRRAFVTVTHRLLLLCLGVVMVCVVLRYMKYRWTKEEEETRQMYDMVVKIIDVLRSHNEACQENKDLQPYMPIPHVRDSLIQPHDRKKMKKVWDRAVDFLAANESRVRTETRRIGGADFLVWRWIQPSASCDK | binds |  |

The next lines start with results.

| binding [5] | Molecule | other results |
| --- | --- | --- |
| binds | endogenous MAN1 (protein, UniProt Q9Y2U8 1-911) MAAAAASAPQQLSDEELFSQLRRYGLSPGPVTESTRPVYLKKLKKLREEEQQQHRSGGRGNKTRNSNNNNTAAATVAAAGPAAAAAAGMGVRPVSGDLSYLRTPGGLCRISASGPESLLGGPGGASAAPAAGSKVLLGFSSDESDVEASPRDQAGGGGRKDRASLQYRGLKAPPAPLAASEVTNSNSAERRKPHSWWGARRPAGPELQTPPGKDGAVEDEEGEGEDGEERDPETEEPLWASRTVNGSRLVPYSCRENYSDSEEEDDDDVASSRQVLKDDSLSRHRPRRTHSKPLPPLTAKSAGGRLETSVQGGGGLAMNDRAAAAGSLDRSRNLEEAAAAEQGGGCDQVDSSPVPRYRVNAKKLTPLLPPPLTDMDSTLDSSTGSLLKTNNHIGGGAFSVDSPRIYSNSLPPSAAVAASSSLRINHANHTGSNHTYLKNTYNKPKLSEPEEELLQQFKREEVSPTGSFSAHYLSMFLLTAACLFFLILGLTYLGMRGTGVSEDGELSIENPFGETFGKIQESEKTLMMNTLYKLHDRLAQLAGDHECGSSSQRTLSVQEAAAYLKDLGPEYEGIFNTSLQWILENGKDVGIRCVGFGPEEELTNITDVQFLQSTRPLMSFWCRFRRAFVTVTHRLLLLCLGVVMVCVVLRYMKYRWTKEEEETRQMYDMVVKIIDVLRSHNEACQENKDLQPYMPIPHVRDSLIQPHDRKKMKKVWDRAVDFLAANESRVRTETRRIGGADFLVWRWIQPSASCDKILVIPSKVWQGQAFHLDRRNSPPNSLTPCLKIRNMFDPVMEIGDQWHLAIQEAILEKCSDNDGIVHIAVDKNSREGCVYVKCLSPEYAGKAFKALHGSWFDGKLVTVKYLRLDRYHHRFPQALTSNTPLKPSNKHMNSMSHLRLRTGLTNSQGSS |  |
| binds | endogenous CTDNEP1 (enzyme, UniProt O95476 1-244) MMRTQCLLGLRTFVAFAAKLWSFFIYLLRRQIRTVIQYQTVRYDILPLSPVSRNRLAQVKRKILVLDLDETLIHSHHDGVLRPTVRPGTPPDFILKVVIDKHPVRFFVHKRPHVDFFLEVVSQWYELVVFTASMEIYGSAVADKLDNSRSILKRRYYRQHCTLELGSYIKDLSVVHSDLSSIVILDNSPGAYRSHPDNAIPIKSWFSDPSDTALLNLLPMLDALRFTADVRSVLSRNLHQHRLW |  |

Reference: PMC11992160
